Reference: the RNAGym collection of RNA variant scans (doi:10.7554/elife.90254)
Read counts are not given, so values of variants with three or more changes are uncertain.

B1: LINE1-mini (parent)
chain: GGCAGAGCUCAACACAGCGUGGCAAAGUGGCUGUGGCUAGACUGCC

Variants of: B1
Experiment: self-cleavage, relative activity (ratio to wild type); higher = more cleavage; in vitro, sequencing; the parent is a self-cleaving ribozyme

Question: For GGUAGAGCUCAAGACAGCUUGGCAAAGUGGCUGUGGUUCGACUGCC [C3U C13G G19U C37U A39C], which self-cleavage is on record?
Answer: Its self-cleavage is 0.03.

Question: With GGUAGAGCUCAAGACAGCGUGGCAAAGUCGCUAUGGCUUGACUGCC [C3U C13G G29C G33A A39U] as the variant, how does the self-cleavage read?
Answer: Its self-cleavage is 0.02.

Question: Which self-cleavage does the source give for GGUAGAGCUCAAUACAGCGUGGCUUAGUGGCUGUGGCUAGACUGGC [C3U C13U A24U A25U C45G] here?
Answer: The self-cleavage was 0.2.

Question: With GGUAGAGCUCAAUACAGCGUGGCAAAGUGGCUAUGGAUAGACUGCC [C3U C13U G33A C37A] as the variant, how does the self-cleavage read?
Answer: Its self-cleavage is 0.07.

Question: For GGUAGAGCUCAAUACAGCGUGGCAAAGUGGCUGUGGCUAAACCGCC [C3U C13U G40A U43C], which self-cleavage is on record?
Answer: The self-cleavage was 0.03.

Question: With GGUAGAGCUCAACAAAGCGUGGCAAAGUGGCUGUGGUUAGACUGCC [C3U C15A C37U] as the variant, how does the self-cleavage read?
Answer: Its self-cleavage is 0.05.

Question: Which self-cleavage does the source give for GGUAGAGCUCAACAAAGCGUGGCAAAUUGGCUGUGGCUAGACUGCC [C3U C15A G27U] here?
Answer: Its self-cleavage is 0.07.

Question: With GGUAGAGCUCAACAAAGCGUGGCAAAGUGGCUGUGUCUAGACUGCC [C3U C15A G36U] as the variant, how does the self-cleavage read?
Answer: The self-cleavage was 0.09.

Question: For GGUAGAGCUCAACAGAGCGUGGCAAAGUGGCUGUGGCUAGCCUGCU [C3U C15G A41C C46U], which self-cleavage is on record?
Answer: Its self-cleavage is 0.

Question: Which self-cleavage does the source give for GGUAGAGCUCAACAGACGGUGGCAAAGCGGAUGUGGGUAGACUUCC [C3U C15G G17C C18G U28C C31A C37G G44U] here?
Answer: The self-cleavage was 0.01.

Question: Which self-cleavage does the source give for GGUAGAGCUCAACAUAGCGUGGCAAAGUGGCUGUGGCUAGAAUGCC [C3U C15U C42A] here?
Answer: The self-cleavage was 0.56.

Question: For GGUAGAGCUCAACAUACCGUGGCAAAGUGGCUGUGGCUAGACUGCC [C3U C15U G17C], which self-cleavage is on record?
Answer: The self-cleavage was 0.02.

Question: With GGUAGAGCUCAACAUAGCGUCGCAAACUGGCUGUGGCUAGACUGCC [C3U C15U G21C G27C] as the variant, how does the self-cleavage read?
Answer: The self-cleavage was 0.36.

Question: Which self-cleavage does the source give for GGUAGAGCUCAACAUAGCGUGGCAAAGUCCCUGUGGCUAGAUUGCC [C3U C15U G29C G30C C42U] here?
Answer: Its self-cleavage is 0.1.

Question: Which self-cleavage does the source give for GGUAGAGCUCAACAUAGCGUGGCAAAGUGGCUGUGGCUAGACUUCC [C3U C15U G44U] here?
Answer: Its self-cleavage is 0.04.

Question: For GGUAGAGCUCAACACAGAGUGGCAAAGUGGCUGUGGCUAGUCGGCC [C3U C18A A41U U43G], which self-cleavage is on record?
Answer: Its self-cleavage is 0.12.

Question: For GGUAGAGCUCAACACAGAGUGGAAAAGUGCCUGUGGCUGGGCAGCC [C3U C18A C23A G30C A39G A41G U43A], which self-cleavage is on record?
Answer: The self-cleavage was 0.02.

Question: With GGUAGAGCUCAACACAGAGUAGCAUAGUGGCUGUGGCUAGACUGCC [C3U C18A G21A A25U] as the variant, how does the self-cleavage read?
Answer: The self-cleavage was 0.14.

Question: With GGUAGAGCUCAACACAGAGUGGCAAAGGGGCUGUGGCUAGACUGCC [C3U C18A U28G] as the variant, how does the self-cleavage read?
Answer: The self-cleavage was 0.29.

Question: For GGUAGAGCUCAACACAGGGUGGCAAAGUGGCUGUGGCUAGACUGCU [C3U C18G C46U], which self-cleavage is on record?
Answer: Its self-cleavage is 0.07.

Question: With GGUAGAGCUCAACACAGGGAGGCAAAGUGGCUGUGUCUAGACCGCC [C3U C18G U20A G36U U43C] as the variant, how does the self-cleavage read?
Answer: Its self-cleavage is 0.45.

Question: With GGUAGAGCUCAACACAGUGUGGCAGAGUGGCUGUGGCUAGACUGCC [C3U C18U A25G] as the variant, how does the self-cleavage read?
Answer: The self-cleavage was 0.05.

Question: With GGUAGAGCUCAACACAGUGUGUCAAAGUGGCUGUGGCUAGACUGCG [C3U C18U G22U C46G] as the variant, how does the self-cleavage read?
Answer: Its self-cleavage is 0.34.

Question: Which self-cleavage does the source give for GGUAGAGCUCAACACAGUGCGGCAAAGUGGCUGUGGCUAGACUGCC [C3U C18U U20C] here?
Answer: Its self-cleavage is 0.39.

Question: With GGUAGAGCUCAACACAGCGUGGAAAAGUGGAUGUGGCUAGACUGCC [C3U C23A C31A] as the variant, how does the self-cleavage read?
Answer: The self-cleavage was 0.13.

Question: Which self-cleavage does the source give for GGUAGAGCUCAACACAGCGUGGAAAAGUUGCUGUGGCCAGACCGCC [C3U C23A G29U U38C U43C] here?
Answer: Its self-cleavage is 0.21.

Question: For GGUAGAGCUCAACACAGCGUGGAAAAGUGGCUUUGGCUAGACUGCC [C3U C23A G33U], which self-cleavage is on record?
Answer: Its self-cleavage is 0.08.

Question: With GGUAGAGCUCAACACAGCGUGGAAAAGUGGCUGAGCCUAGACUGCC [C3U C23A U34A G36C] as the variant, how does the self-cleavage read?
Answer: The self-cleavage was 0.05.

Question: With GGUAGAGCUCAACACAGCGUGGGUAAAUGGCUGUGGCUAGACUUCU [C3U C23G A24U G27A G44U C46U] as the variant, how does the self-cleavage read?
Answer: Its self-cleavage is 0.04.

Question: With GGUAGAGCUCAACACAGCGUGGGAAAGUGGCUGUGGGCGGACUGCC [C3U C23G C37G U38C A39G] as the variant, how does the self-cleavage read?
Answer: The self-cleavage was 0.05.

Question: For GGUAGAGCUCAACACAGCGUGGGAAAGUGGCUGUGCCUAGACUGCC [C3U C23G G36C], which self-cleavage is on record?
Answer: The self-cleavage was 0.14.

Question: For GGUAGAGCUCAACACAGCGUGGUAAAGUGGAUGUGGCUAGAGUGCC [C3U C23U C31A C42G], which self-cleavage is on record?
Answer: The self-cleavage was 0.06.

Question: For GGUAGAGCUCAACACAGCGUGGUAAAGUGGCUGUGGCUAGACUGCU [C3U C23U C46U], which self-cleavage is on record?
Answer: Its self-cleavage is 0.2.

Question: For GGUAGAGCUCAACACAGCGUGGUAAAGGGGCUGGGGCUAGACUGCC [C3U C23U U28G U34G], which self-cleavage is on record?
Answer: The self-cleavage was 0.04.

Question: Which self-cleavage does the source give for GGUAGAGCUCAACACAGCGUGGCAAAGUGGAUGUGGCUCGACUGAC [C3U C31A A39C C45A] here?
Answer: The self-cleavage was 0.

Question: For GGUAGAGCUCAACACAGCGUGGCAAAGUGGGUGUGGCUAGACUGCG [C3U C31G C46G], which self-cleavage is on record?
Answer: Its self-cleavage is 0.03.

Question: Which self-cleavage does the source give for GGUAAAGCUCACCACAACGUGGCAAAGUGGCUGUGGCUAGACUGCC [C3U G5A A12C G17A] here?
Answer: The self-cleavage was 0.06.

Question: For GGUAAAGCUCAACACAGCGUGGCAUAGUGGCUGUGACUGGACUGCC [C3U G5A A25U G36A A39G], which self-cleavage is on record?
Answer: Its self-cleavage is 0.09.

Question: For GGUAAAGCUCAACACAACGUGGCAAAGUGGCUGUUACUAGACUGCC [C3U G5A G17A G35U G36A], which self-cleavage is on record?
Answer: The self-cleavage was 0.09.

Question: Which self-cleavage does the source give for GGUAAAGCUCAACACAGCGUGGCAAAGUGGCUGUGGCUAAACUGCC [C3U G5A G40A] here?
Answer: Its self-cleavage is 0.06.

Question: Which self-cleavage does the source give for GGUAAAGCACAACACAGCGUGGCAAAGUGGCUGUGGCUAGACUGCC [C3U G5A U9A] here?
Answer: Its self-cleavage is 0.11.

Question: With GGUACCGCUUAACACAGCGUGGCAAAGUGGGUGAGGCUAGACUGCC [C3U G5C A6C C10U C31G U34A] as the variant, how does the self-cleavage read?
Answer: Its self-cleavage is 0.03.

Question: With GGUACGGCUCAACACAGCGUGGCAAAGUGGUUGUGGCUAGACUGCC [C3U G5C A6G C31U] as the variant, how does the self-cleavage read?
Answer: The self-cleavage was 0.03.

Question: Which self-cleavage does the source give for GGUACAGCUCUACACAGCGUGUCAAAGUGGAUGUGGCUAGACUGCC [C3U G5C A11U G22U C31A] here?
Answer: Its self-cleavage is 0.04.

Question: For GGUACAGCUCAUCACCGUGUGGCAAAGUGGCUGUGGCUAGACUGCC [C3U G5C A12U A16C C18U], which self-cleavage is on record?
Answer: Its self-cleavage is 0.04.

Question: For GGUACAGCUCAUCACAGCGUGGCAGAGUGGCUGUGGCUAGACUGCC [C3U G5C A12U A25G], which self-cleavage is on record?
Answer: The self-cleavage was 0.01.

Question: For GGUACAGGUCAACACCGCGUGGCAAGUUGGCUGUGGCUAGACUGCC [C3U G5C C8G A16C A26G G27U], which self-cleavage is on record?
Answer: The self-cleavage was 0.13.

Question: For GGUACAGGUCAACACAGCGUGGCAAAGUAGCUGUGGCUAUAAUGCC [C3U G5C C8G G29A G40U C42A], which self-cleavage is on record?
Answer: The self-cleavage was 0.08.

Question: Which self-cleavage does the source give for GGUACAGCUCAACACAGUCUGGCAAAGUGGCUGUGGCUAGACUGCC [C3U G5C C18U G19C] here?
Answer: Its self-cleavage is 0.04.

Question: With GGUACAGCUCAACACAAAGUGGCAAAGUGGAUGUGGCUAAACUGCC [C3U G5C G17A C18A C31A G40A] as the variant, how does the self-cleavage read?
Answer: The self-cleavage was 0.02.

Question: Which self-cleavage does the source give for GGUACAGCUCAACACAUCGUGGCAAAGUGGCUGUGGCCAGACUGCC [C3U G5C G17U U38C] here?
Answer: Its self-cleavage is 0.05.

Question: Which self-cleavage does the source give for GGUACAGCUCAACACAGCGUGGCAAAUUCGCGGUGGCUAGACUGCC [C3U G5C G27U G29C U32G] here?
Answer: Its self-cleavage is 0.07.

Question: With GGUACAGCUCAACACAGCGUGGCAAAGUCGCUGUGGCUAGACUGCC [C3U G5C G29C] as the variant, how does the self-cleavage read?
Answer: The self-cleavage was 0.05.

Question: With GGUACAGCUCAACACAGCGUGGCAAAGUUGUCGUGGCUAGACUGCC [C3U G5C G29U C31U U32C] as the variant, how does the self-cleavage read?
Answer: The self-cleavage was 0.05.

Question: With GGUACAGCACAACACAGCGUGGCAAAGUGGCUGUGGCUCGACUGUC [C3U G5C U9A A39C C45U] as the variant, how does the self-cleavage read?
Answer: Its self-cleavage is 0.1.

Question: Which self-cleavage does the source give for GGUACAGCUCAACACAGCGAUGCAAAGUGGCUGUGGCUAGACUGGG [C3U G5C U20A G21U C45G C46G] here?
Answer: The self-cleavage was 0.02.
